Experimental data from the RNAGym collection of RNA variant scans (doi:10.7554/elife.90254).
Read counts are not given, so values of variants with three or more changes are uncertain.

B1: LINE1-mini (parent)
chain: GGCAGAGCUCAACACAGCGUGGCAAAGUGGCUGUGGCUAGACUGCC

Variants of: B1
Test: self-cleavage, relative activity (ratio to wild type); higher = more cleavage; in vitro, sequencing; the parent is a self-cleaving ribozyme

Variant | self-cleavage
C13U C15A C42G | 0.03
C13U A14C U32A C46A | 0.02
C13U A14C C31A A39G G44C | 0.03
C13G U20C G29U G33U C46U | 0.11
C13U A16G G35U C45U | 0.08
C13U G17U G36A | 0.01
C13U C18U G40U | 0.1
C13U G19A U20G A24U | 0.09
C13U G17U G27C G44C | 0.23
C13U C15G C42G | 0.02
C13U C23A A25U | 0.01
C13U G17C G22A G30A G44A | 0.04
C13U C31U G36A | 0.04
C13U G21C C23A C42G | 0.23
C13U A14C G27A | 0.04
C13U A14G C37U | 0.14
C13U C15U A16C | 0.28
C13G U32G G33U C46A | 0.03
C13U C18U C23A U34A | 0.01
C13U C15G A24U U38G | 0.04
C13U A24G U38A C42G C45A | 0
C13U A24C C46G | 0.02
C13U C23G C37A G40C | 0.03
C13U C15U G44C | 0.23

Variant | self-cleavage
C13U A24C U28A G36C G44U C45U | 0.02
C13G U20G C46A | 0.08
C13U A16C G40A | 0.06
C13U C15A G27A C46A | 0.09
C13U G19U A25G | 0.03
C13U A14U U20G U34G | 0.03
C13U A16C C45G | 0.01
C13U C18G C42G | 0.03
C13U C15A A24G G35U | 0.08
C13U C15A U34G | 0.04
C13U A24U G29A | 0.14
C13U C31G G33A | 0.02
C13U G19U G40A | 0.17
C13G U32G G36C | 0.01
C13U A26G U28C | 0.06
C13U C31U U43G G44A | 0.09
C13U C15G C23U A26G C31U | 0.65
C13U G19C C31U G44A | 0.08
C13U A16G G36A | 0.2
C13U G17C C18U C23G C46A | 0.01
C13U C42A C46U | 0.13
C13U A25C G44U | 0.01
C13U C15U C31A | 0.06
C13U C23U G44C | 0.07

Variant | self-cleavage
C13U A16G G27U A41C C42G G44C | 0.03
C13U A39C C46U | 0.22
C13U C18A G44U | 0.09
C13U A14G G30A | 0.21
C13U G19A G40U | 0.01
C13U G19A G21U G30A G40A | 0.02
C13U A16U C23G C37G | 0.01
C13G U20G A41G | 0.03
C13G U28C G29C G40A | 0.02
C13U G19U G35C | 0.08
C13G U20C G22U C37G G40C | 0.02
C13U C15G G27U | 0.03
C13U C18A G27A | 0.03
C13G U20G G27C U28G C31G | 0.02
C13U A14U G21U G30C | 0.05
C13U C37U G44A | 0.07
C13G U28A C37U | 0.11
C13U C18U G21A C31A | 0.09
C13U C18G C23A | 0.06
C13U C15G A24C A26C G27U | 0.01
C13G U28G C31U | 0.07
C13G U28G U34C C46U | 0.04
C13U G17C G19C G29U G35A | 0.16
C13U A25G U32G U43G G44U | 0.04

Variant | self-cleavage
C13U A14G A26C G27A | 0.03
C13U A14U G27A | 0.06
C13U C18U C42A | 0.03
C13U A16U U38G A39G | 0.16
C13U C31G C45U | 0.01
C13U G19A C23G | 0.08
C13U A14C C15U | 0.17
C13U A14U G27C G35C | 0.04
C13U C23A U43C | 0.07
C13U G17U U38A C45U | 0.03
C13U C42G C45A | 0.05
C13U G17U G30C G40C | 0.08
C13U A14C A41C C42U | 0.01
C13U G19U U28A | 0.05
C13U A24C U28C | 0.01
C13U C18A G33C C45A | 0.03
C13G U20C U43C | 0.02
C13G U32C C37U | 0.11
C13G U32C C37G | 0.08
C13U A26C U43C | 0.02
C13U C18A G22U | 0.08
C13U G17U U20A U32C G44U | 0.04
C13G U34C C42U U43G | 0.47
C13U C15A U20A | 0.05

Variant | self-cleavage
C13G U28G C46A | 0.05
C13U A16U C23U A25G C31A | 0.06
C13U A26U U38A | 0.08
C13U A39C A41G | 0.04
C13U C31U G33C | 0.27
C13G U28C U34G | 0.02
C13G U43G C45A | 0.18
C13U G19A G35U C42U | 0.02
C13U A39C G40C | 0.05
C13U A16G C18U | 0.03
C13U G17A A41G | 0.26
C13U A16U G33A C37U | 0.26
C13U C15U G19C A26U G40C | 0.04
C13U A26U G27C | 0.14
C13U A16C G33A A41C | 0.02
C13U A16U U20G | 0.01
C13U A16G G27U C42U | 0.12
C13U A25C C31A | 0.04
C13U A14C C42G | 0.11
C13G U34C U43G | 0.03
C13U A16U A39U | 0.04
C13U C15U G22U A26G | 0.06
C13U C23G G30U A39G A41U | 0.05
C13U C18G U32C G44C | 0.05

Variant | self-cleavage
C13U G17U G19U G21U U34C G36C | 0.02
C13G U38G G40C | 0.03
C13G U32G U34A | 0.03
C13U A25U G29C G30A G44U | 0.17
C13U G17C G29C | 0.01
C13U A14U G35U G36A | 0.11
C13U A14U C45U | 0.04
C13U C23G G40C | 0.15
C13U C18A G29U G30U G36A | 0.16
C13U C15U C18A G33A U38A G40U G44A | 0.02
C13U C15U G22U A24C | 0.06
C13U A25G C37A | 0.08
C13U G19U C42G | 0.02
C13U A16C G19U U28G U32C | 0.06
C13U A26C A41C | 0.03
C13U C18A G36U | 0.02
C13U A16G U20C C45U | 0.01
C13U C23U G27C U34G C45G C46U | 0.02
C13U C15U G22A A24G | 0.07
C13G U20C A26G G27A G30C G33U C45U | 0
C13U A14G G29C C31U | 0.06
C13U C23A G29C A41C C45U | 0.02
C13U C15U U20G G44C | 0.05
C13U C15G G27U G33C G36C C45G | 0

Variant | self-cleavage
C13U C23U A24U A25U C45U C46A | 0.03
C13U A16U A25C C31U C37A A39C C45A | 0.02
C13U C23G G27A | 0.06
C13U C15U G21U | 0.13
C13U C18U A25G G36C | 0.03
C13U C31A C37A | 0.04
C13G U32G G33A | 0.05
C13G U28C G44C | 0.05
C13U A14U G17C A41U C45G | 0.04
C13U A24U C42U | 0.1
C13U A16C G19C U20C A24C U32G G36A | 0.05
C13U C23U U34A G35A | 0.14
C13U A26C U28A A39C | 0.05
C13U A14G C15A | 0.11
C13U G19A C45A | 0.1
C13G U32G G33U C42U C45U | 0.1
C13U G21C A39G | 0.08
C13U C18G G19A | 0.05
C13G U28C G29A C46G | 0.11
C13U G17C U20A C45G | 0.03
C13U C31G U32A G33U | 0.03
C13U A14G A25G G40A | 0.04
C13U A14G G22U C23A | 0.11
